Where “and” joins values, the source holds several entries; their conditions need not be identical. Equal entries are not always repeated. Screen size: about 94,000 compounds; about 4,000 (4.3%) were called active. This list was built around the results that the source calls inconclusive (neither active nor inactive); the mix of calls is not that of the screen. Calls come from the whole dose curve; as a rule, active = well fitted inhibition curve with a large enough effect; inconclusive = small, poorly fitted or top-dose-only effect; inactive = no such curve, though single readings can be large or run the other way. Where the call is inconclusive, the potency comes from a doubtful curve fit.
test: Cytotoxic Profiling in NIH 3T3 Cell Line of Diverse Libraries Using Quantitative High-Throughput Screening; details: NIH 3T3 viability, CellTiter-Glo ATP luminescence, 48-72 h; series mostly up to 96.7 µM; note: nearly all actives have a fitted effect of over 55% in size
Summary of the method: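 Cytotoxicity was measured by CellTiter-Glo ATP luminescence after 48 or 72 h compound exposure at 37 °C. Mouse NIH 3T3 fibroblasts were seeded at 400 cells/well and dosed by 23 nL pin transfer.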
Potency is the fitted concentration of half-maximal effect; tags give direction and shape of the fitted curve.

Compound	Potency
COc1cccc(CC(=O)N2CCc3c(c(-c4nncn4C(C)C)nn3C)C2)c1	inactive
CCCC1=Nc2cc(C(=O)NCCCN3CCCCC3CC)ccc2Sc2ccc(C)cc21 (centres undefined)	active: 7.08 µM
O=C(Cc1ccc(F)cc1)N1CCC2(CC1)NC(=O)N(c1ccccc1Cl)N2	inconclusive: 39.8 µM [inhibitor, partial curve]
O=C(Nc1ccccc1Cl)C1CCCN(Cc2cccc(-c3cccs3)c2)C1 (centres undefined)	inconclusive: 44.7 µM [inhibitor, partial curve, poor fit] and inconclusive: 50.1 µM [inhibitor, partial curve, poor fit]
COc1ccccc1NC(=O)c1cc2c(n1C)CCN(Cc1cccc(C)c1)C2	inconclusive: 50.1 µM [inhibitor, single point]
COc1cccc(CN2CC3(C2)C(=O)N(Cc2ccccc2Cl)C(=O)[C@@H]2C[C@@H](O)CN23)c1	inconclusive: 79.4 µM [inhibitor, single point]
CCCCc1cc(C[C@@H]2C[C@H](NC(=O)c3cccc(F)c3)C2(C)C)no1	active: 63.1 µM
COc1cccc(-c2nc(-c3c(C)noc3C)cc3c2cc(C)n3CCN(C)C)c1OC	inconclusive: 126 µM [inhibitor, partial curve, poor fit]
CN1CCN(C(=O)c2ccc3nc(-c4ccccn4)oc3c2)CC1	inactive
O=C(Cc1ccccc1)NCc1ccnc2[nH]ccc12	inactive
CCc1ccc(CN2CCC3(CC2)Cc2ccccc2CNC3=O)cc1	inconclusive: 50.1 µM [inhibitor, partial curve, poor fit]
Cc1cc(F)ccc1OC1CN(CC2CCCCC2)C1	inconclusive: 79.4 µM [inhibitor, partial curve]
COc1ccc(-c2ccnc(N[C@H]3CO[C@H]4[C@@H]3OC[C@H]4OC(=O)Nc3cccc(C(F)(F)F)c3)n2)cc1	inconclusive: 56.2 µM [inhibitor, partial curve, poor fit]
COc1ccc(OCC(O)CN2CCC(=O)N(C3CC3)Cc3ccccc32)cc1 (centres undefined)	inconclusive: 50.1 µM [inhibitor, partial curve, poor fit]
O=C(CN1CCCc2nc(-c3ccncc3)ncc2C1=O)NCc1cc(F)ccc1F	inconclusive: 50.1 µM [inhibitor, partial curve, poor fit]
O=C1NCCCCCCN(C(=O)Cc2ccccc2)[C@H]2C[C@H](c3nc(Cc4ccccc4)no3)C[C@@H]12	inconclusive: 50.1 µM [inhibitor, partial curve, poor fit]
CNC(=O)c1cc(C2CC2)nc2onc(C3CCN(C(=O)Cc4ccc(F)cc4)C3)c12 (centres undefined)	inconclusive: 22.4 µM [inhibitor, full curve]
CC(C)CNC(=O)c1ccc2nnc(-c3ccoc3)n2c1	inactive
Cc1ccc(OCC(=O)N2CCC3(CC2)CCC(O)(CN(C)C)CC3)cc1	inconclusive: 56.2 µM [inhibitor, partial curve, poor fit]
COc1ccc(C[C@H](N)C(=O)NCc2c(C)ncc3c2CCNC3)cc1	inactive
CCOc1ccc(C2NC(=O)N(Cc3noc(C4CCCCC4)n3)C3=C2C(=O)OC3)cc1 (centres undefined)	inconclusive: 35.5 µM [inhibitor, partial curve]
CC(=O)NC(C)c1nnc2n1CCN([S+](=O)([O-])c1ccccc1)C2 (centres undefined)	inactive

Compound	Potency
Cc1ccc([S+](=O)([O-])N2CCCC(c3nn(-c4ccccn4)c(=O)[nH]3)C2)cc1 (centres undefined)	inconclusive: 70.8 µM [inhibitor, single point]
O=C(Nc1ccccc1)N1CCN(c2nccc(Nc3ccccc3F)n2)CC1	active: 44.7 µM
COc1ccc(-c2cn(C)c(=O)n3cc(COc4ccccc4)nc23)c(C(F)(F)F)c1	inconclusive: 25.1 µM [inhibitor, full curve, poor fit]
COc1ccc(C(=O)N2CCN3C(=O)c4cc(-c5ccc(Cl)cc5)ccc4NC(=O)[C@@H]3C2)cc1	active: 28.2 µM
O=C(CCC1CCN(S(=O)(=O)c2ccccc2)CC1)N1CCCCC1	inconclusive: 28.2 µM [inhibitor, partial curve, poor fit]
COc1ccc(Cn2c(=O)c(C(=O)N3CCN(C(=O)c4ccc(C(F)(F)F)cc4)CC3)nc3cccnc32)cc1	inconclusive: 70.8 µM [inhibitor, single point]
COCCNC(=O)C1(C)CCCc2cnc(Nc3ccccc3)nc21 (centres undefined)	inconclusive: 39.8 µM [inhibitor, partial curve, poor fit]
CN(C)CC1(O)CCN(C(=O)Cn2cc(C(=O)C3CC3)c3ccccc32)C1 (centres undefined)	inactive
O=C(NCC1CC1)c1ccc2oc(-c3cccnc3)nc2c1	inactive
Cc1ccc(Cl)c(OCC(=O)c2ccc3c(c2)N(CCCC(=O)NC2CC2)C(=O)CO3)c1	inconclusive: 50.1 µM [inhibitor, partial curve, poor fit]
CCc1[nH]c2ccc(CNC(=O)[C@H]3[C@@H]4C=C[C@@]5(CN(C)C(=O)[C@@H]35)O4)cc2c1C	inactive
O=C(N[C@@H]1CCC[C@@H]1C(=O)NC1CCCCCC1)c1ccncc1	inactive
CC1=NS(=O)(=O)N(Cc2ccccc2)C=C1C(=O)OCc1noc(-c2cccc(Cl)c2)n1	inconclusive: 35.5 µM [inhibitor, partial curve]
NC(=O)CNC(=O)c1cc2c(s1)CCN(C(=O)c1ccc(Cl)cc1)C2	inactive
COCC1CN(Cc2cn(C)c3ccc(OC)cc23)CC12CCNCC2 (centres undefined)	inconclusive: 50.1 µM [inhibitor, partial curve, poor fit]
Cc1nnc2ccc(N3CCCN(C(=O)NC4CCCC4)CC3)nn12	inactive
COc1cccc(-c2cccc(CN)c2)c1	inconclusive: 89.1 µM [inhibitor, partial curve]
CN1C[C@@H]2[C@H](c3ccccc31)[C@@H](CO)[C@@H](c1ccccc1)N2C(=O)c1ccno1	inconclusive: 44.7 µM [inhibitor, partial curve, poor fit]
O=C(c1ccccn1)N1CCCC(C(=O)N2CCCC(c3nc4ncccc4[nH]3)C2)C1 (centres undefined)	inactive
CC(C)(Oc1nn(Cc2cccc(Cl)c2)c2ccccc12)C(=O)NC1CC1	inconclusive: 56.2 µM [inhibitor, partial curve, poor fit]
COc1ccc(C(=O)N2C[C@@H]3C[C@H](C2)c2c(/C=C/c4ccc(Cl)cc4)ccc(=O)n2C3)cc1	inconclusive: 89.1 µM [inhibitor, single point]
CC(=O)NCCc1ncc(C)n1C1CCCCCC1	inconclusive: 50.1 µM [inhibitor, partial curve, poor fit]

Compound	Potency
O=C(CCNC(=O)c1cnccn1)NC1CCCc2c1[nH]c1ccccc21 (centres undefined)	inactive
Cc1ccccc1CCN1CCC(CN(C(=O)c2ccoc2C)C2CCCC2)CC1	inconclusive: 89.1 µM [inhibitor, single point]
COc1cccc(CN2CCCC(O)(CN3CCSCC3)C2=O)c1 (centres undefined)	inactive
Cc1ccc(-c2cccc(CN3CCCC3C(=O)NCC(F)(F)F)c2)cc1Cl (centres undefined)	inconclusive: 50.1 µM [inhibitor, partial curve, poor fit]
CC[C@H]1CN(S(=O)(=O)c2ccc(OC)cc2)CC[C@H]1CC(=O)N(CC)C(=O)NCCCN(C)C	inactive
COc1ccccc1CN1CCNc2cnc(Oc3ccccc3)cc2C1	inconclusive: 79.4 µM [inhibitor, partial curve, poor fit]
Cc1ccc(NC(=O)N2CCC(CCNC(=O)C3CCCC3)CC2)cc1F	inactive
CN1Cc2ccc(N3CCOCC3)nc2C(C)(C(=O)NCc2ccccc2)C1 (centres undefined)	inconclusive: 79.4 µM [inhibitor, partial curve, poor fit]
CN1CC(=O)N(c2ccccc2F)Cc2c(NCc3ccc(F)cc3)ncnc21	inconclusive: 50.1 µM [inhibitor, partial curve, poor fit]
CC(=O)N1CCC(CC(=O)N2CC(c3nc(CCOc4cccc(C)c4)no3)C2)CC1	inactive
NC(=O)c1cccc(CN2CCCC3(Cc4ccccc4N(C(=O)c4ccc(Cl)cc4)C3)C2)c1 (centres undefined)	inconclusive: 56.2 µM [inhibitor, partial curve, poor fit]
O=C(c1ccncc1)N1CCCC2(CNc3ncccc3[S+](=O)([O-])N2)C1 (centres undefined)	inconclusive: 70.8 µM [inhibitor, single point]
COc1cccc(-c2ccc(C(=O)N3CCC(C(=O)NCc4cccc(Cl)c4)CC3)cc2)c1	inconclusive: 44.7 µM [inhibitor, partial curve, poor fit]
C=CCNC(=O)CCc1c(C)nn(-c2ccc(F)cc2)c1Oc1ccccc1	inconclusive: 50.1 µM [inhibitor, partial curve, poor fit]
O=C(NCC(F)(F)F)c1nc2sccn2c1-c1ccccc1	inconclusive: 89.1 µM [inhibitor, partial curve, poor fit]
Cc1cc(C(=O)N2CCCCCCNC(=O)CC2)nn1C	inactive
O=C(Cn1ccn2nc(-c3ccc(F)cc3)c(CO)c2c1=O)Nc1cccc(Br)c1	inconclusive: 44.7 µM [inhibitor, partial curve, poor fit]
COc1ccc(-c2nc(-c3c(C)noc3C)cc3cc(CN(C)C)oc23)cn1	active: 50.1 µM
CCc1ccc(C(=O)Nc2ccc(-c3nnc4n3CCCC4)cc2)cc1	inactive
C#CCNC(=O)C1CCCN(Cc2cccc(-c3ccsc3)c2)C1 (centres undefined)	inconclusive: 50.1 µM [inhibitor, partial curve, poor fit]

Reference: PubChem BioAssay AID1345082 (National Center for Advancing Translational Sciences (NCATS), 2018)
